# Test results as given in the supplement of paper PMC8728848.
# This is one part of the list.
# B1: Codakine (Codakia orbicularis), Q3KVL7_9BIVA (protein)
# chain: MKILVAVFLVLVVVGTAAAGCPDGWTQFLDLCYIYQSAKASWASAQSSCQALGGILAEPDTACENEVLIHMCRENGDAGSFGPWLGGQKVGGAWQWSSSGAAFDYLRWGPNEPNNSGGNEDCLHYNWLSWNDLRCHYQASYLCQRAAE
# Columns and labels:
# Experiment in all cases: glycan array binding signal (z-score within array); higher = stronger binding
# Details in all cases: glycan notation: IUPAC condensed, linker removed
# GlcNAc(b1-6)GalNAc = molecular target: GlcNAc(b1-6)GalNAc
# Outline: (§1)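 Glycan array binding is given as a within-array Z-score, which can be read as non-binding when negative. The arrays, 3228 of them, came from the Consortium for Functional Glycomics database and were retained only where the protein sequence was available. Z-scores were averaged across arrays of the same protein sequence at different concentrations or buffers and across linkers.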
# GlcNAc3Prop(b1-4)GlcNAc = molecular target: GlcNAc3Prop(b1-4)GlcNAc
# Outline: as §1
# Kdn(a2-3)Gal(b1-3)GlcNAc = molecular target: Kdn(a2-3)Gal(b1-3)GlcNAc
# Outline: as §1
# Kdn(a2-3)Gal(b1-4)GlcNAc = molecular target: Kdn(a2-3)Gal(b1-4)GlcNAc
# Outline: as §1
# [1] = molecular target: Man(a1-2)Man(a1-2)Man(a1-3)Man
# Outline: as §1
# [2] = molecular target: Man(a1-2)Man(a1-2)Man(a1-6)[Man(a1-3)]Man
# Outline: as §1
# Man(a1-2)Man(a1-3)Man = molecular target: Man(a1-2)Man(a1-3)Man
# Outline: as §1
# [3] = molecular target: Man(a1-2)Man(a1-3)[Man(a1-2)Man(a1-6)]Man
# Outline: as §1
# [4] = molecular target: Man(a1-2)Man(a1-3)[Man(a1-2)Man(a1-6)]Man(a1-6)[Man(a1-2)Man(a1-2)Man(a1-3)]Man
# Outline: as §1
# [5] = molecular target: Man(a1-2)Man(a1-3)[Man(a1-2)Man(a1-6)]Man(a1-6)[Man(a1-2)Man(a1-2)Man(a1-3)]Man(b1-4)GlcNAc(b1-4)GlcNAc
# Outline: as §1
# [6] = molecular target: Man(a1-2)Man(a1-3)[Man(a1-6)]Man(a1-6)[Man(a1-2)Man(a1-3)]Man(b1-4)GlcNAc(b1-4)GlcNAc
# Outline: as §1
# [7] = molecular target: Man(a1-2)Man(a1-6)[Man(a1-3)]Man(a1-6)[Man(a1-2)Man(a1-2)Man(a1-3)]Man
# Outline: as §1
# [8] = molecular target: Man(a1-2)Man(a1-6)[Man(a1-3)]Man(a1-6)[Man(a1-2)Man(a1-2)Man(a1-3)]Man(b1-4)GlcNAc(b1-4)GlcNAc
# Outline: as §1
# Man(a1-3)[Man(a1-6)]Man = molecular target: Man(a1-3)[Man(a1-6)]Man
# Outline: as §1
# [9] = molecular target: Man(a1-3)[Man(a1-6)]Man(a1-6)[Man(a1-2)Man(a1-3)]Man(b1-4)GlcNAc(b1-4)GlcNAc
# Outline: as §1
# [10] = molecular target: Man(a1-3)[Man(a1-6)]Man(a1-6)[Man(a1-3)]Man
# Outline: as §1
# [11] = molecular target: Man(a1-3)[Man(a1-6)]Man(a1-6)[Man(a1-3)]Man(b1-4)GlcNAc(b1-4)GlcNAc
# Outline: as §1
# [12] = molecular target: Man(a1-3)[Man(a1-6)]Man(b1-4)GlcNAc(b1-4)GlcNAc
# Outline: as §1
# Man(a1-6)Man = molecular target: Man(a1-6)Man
# Outline: as §1
# Man(b1-4)GlcNAc = molecular target: Man(b1-4)GlcNAc
# Outline: as §1
# Neu5Ac(a2-3)Gal = molecular target: Neu5Ac(a2-3)Gal
# Outline: as §1
# [13] = molecular target: Neu5Ac(a2-3)Gal(b1-3)GalNAc
# Outline: as §1
# [14] = molecular target: Neu5Ac(a2-3)Gal(b1-3)GalNAc(b1-3)Gal(a1-4)Gal(b1-4)Glc
# Outline: as §1
# [15] = molecular target: Neu5Ac(a2-3)Gal(b1-3)GalNAc(b1-3)Gal(b1-4)GlcNAc
# Outline: as §1
# [16] = molecular target: Neu5Ac(a2-3)Gal(b1-3)GalNAc(b1-4)[Neu5Ac(a2-3)]Gal(b1-4)Glc
# Outline: as §1
# [17] = molecular target: Neu5Ac(a2-3)Gal(b1-3)GalNAc6S
# Outline: as §1
# [18] = molecular target: Neu5Ac(a2-3)Gal(b1-3)GlcNAc
# Outline: as §1
# [19] = molecular target: Neu5Ac(a2-3)Gal(b1-3)GlcNAc(b1-3)Gal(b1-3)GlcNAc
# Outline: as §1
# [20] = molecular target: Neu5Ac(a2-3)Gal(b1-3)GlcNAc6S
# Outline: as §1
# [21] = molecular target: Neu5Ac(a2-3)Gal(b1-3)[Fuc(a1-4)]GlcNAc
# Outline: as §1
# [22] = molecular target: Neu5Ac(a2-3)Gal(b1-3)[Fuc(a1-4)]GlcNAc(b1-3)Gal(b1-4)[Fuc(a1-3)]GlcNAc
# Outline: as §1
# [23] = molecular target: Neu5Ac(a2-3)Gal(b1-3)[Neu5Ac(a2-3)Gal(b1-4)]GlcNAc
# Outline: as §1
# [24] = molecular target: Neu5Ac(a2-3)Gal(b1-3)[Neu5Ac(a2-6)]GalNAc
# Outline: as §1
# Neu5Ac(a2-3)Gal(b1-4)Glc = molecular target: Neu5Ac(a2-3)Gal(b1-4)Glc
# Outline: as §1
# [25] = molecular target: Neu5Ac(a2-3)Gal(b1-4)GlcNAc
# Outline: as §1
# [26] = molecular target: Neu5Ac(a2-3)Gal(b1-4)GlcNAc(b1-2)Man(a1-3)[GlcNAc(b1-2)Man(b1-4)GlcNAc(b1-2)Man(a1-6)]Man(b1-4)GlcNAc(b1-4)GlcNAc
# Outline: as §1
# [27] = molecular target: Neu5Ac(a2-3)Gal(b1-4)GlcNAc(b1-2)Man(a1-3)[Neu5Ac(a2-6)Gal(b1-4)GlcNAc(b1-2)Man(a1-6)]Man(b1-4)GlcNAc(b1-4)GlcNAc
# Outline: as §1
# [28] = molecular target: Neu5Ac(a2-3)Gal(b1-4)GlcNAc(b1-3)Gal(b1-3)GlcNAc
# Outline: as §1
# [29] = molecular target: Neu5Ac(a2-3)Gal(b1-4)GlcNAc(b1-3)Gal(b1-4)GlcNAc
# Outline: as §1
# [30] = molecular target: Neu5Ac(a2-3)Gal(b1-4)GlcNAc(b1-3)Gal(b1-4)GlcNAc(b1-3)Gal(b1-4)GlcNAc
# Outline: as §1
# [31] = molecular target: Neu5Ac(a2-3)Gal(b1-4)GlcNAc(b1-3)Gal(b1-4)[Fuc(a1-3)]GlcNAc
# Outline: as §1
# [32] = molecular target: Neu5Ac(a2-3)Gal(b1-4)GlcNAc(b1-6)[Gal(b1-3)]GalNAc
# Outline: as §1
# [33] = molecular target: Neu5Ac(a2-3)Gal(b1-4)GlcNAc(b1-6)[Neu5Ac(a2-3)Gal(b1-3)]GalNAc
# Outline: as §1
# [34] = molecular target: Neu5Ac(a2-3)Gal(b1-4)GlcNAc6S
# Outline: as §1
binder,measurement,setting,value
B1,glycan array binding signal (z-score),GlcNAc(b1-6)GalNAc,-0.313
same,glycan array binding signal (z-score),GlcNAc3Prop(b1-4)GlcNAc,-0.313
same,glycan array binding signal (z-score),Kdn(a2-3)Gal(b1-3)GlcNAc,-0.323
same,glycan array binding signal (z-score),Kdn(a2-3)Gal(b1-4)GlcNAc,-0.348
same,glycan array binding signal (z-score),[1],-0.334
same,glycan array binding signal (z-score),[2],0.492
same,glycan array binding signal (z-score),Man(a1-2)Man(a1-3)Man,-0.31
same,glycan array binding signal (z-score),[3],0.573
same,glycan array binding signal (z-score),[4],0.651
same,glycan array binding signal (z-score),[5],0.264
same,glycan array binding signal (z-score),[6],0.554
same,glycan array binding signal (z-score),[7],0.392
same,glycan array binding signal (z-score),[8],0.568
same,glycan array binding signal (z-score),Man(a1-3)[Man(a1-6)]Man,0.669
same,glycan array binding signal (z-score),[9],0.779
same,glycan array binding signal (z-score),[10],-0.043
same,glycan array binding signal (z-score),[11],0.708
same,glycan array binding signal (z-score),[12],4.3
same,glycan array binding signal (z-score),Man(a1-6)Man,0.449
same,glycan array binding signal (z-score),Man(b1-4)GlcNAc,-0.156
same,glycan array binding signal (z-score),Neu5Ac(a2-3)Gal,-0.312
same,glycan array binding signal (z-score),[13],-0.216
same,glycan array binding signal (z-score),[14],-0.317
same,glycan array binding signal (z-score),[15],-0.267
same,glycan array binding signal (z-score),[16],-0.118
same,glycan array binding signal (z-score),[17],-0.162
same,glycan array binding signal (z-score),[18],-0.353
same,glycan array binding signal (z-score),[19],-0.367
same,glycan array binding signal (z-score),[20],-0.08
same,glycan array binding signal (z-score),[21],-0.34
same,glycan array binding signal (z-score),[22],-0.227
same,glycan array binding signal (z-score),[23],-0.333
same,glycan array binding signal (z-score),[24],-0.148
same,glycan array binding signal (z-score),Neu5Ac(a2-3)Gal(b1-4)Glc,-0.133
same,glycan array binding signal (z-score),[25],-0.28
same,glycan array binding signal (z-score),[26],4.82
same,glycan array binding signal (z-score),[27],4.57
same,glycan array binding signal (z-score),[28],-0.286
same,glycan array binding signal (z-score),[29],-0.181
same,glycan array binding signal (z-score),[30],-0.305
same,glycan array binding signal (z-score),[31],-0.293
same,glycan array binding signal (z-score),[32],-0.241
same,glycan array binding signal (z-score),[33],-0.414
same,glycan array binding signal (z-score),[34],-0.198
